Assay results from PubChem BioAssay AID624172 (National Center for Advancing Translational Sciences (NCATS), 2012).
Among all 380,000 compounds or so, about 25 (0.007%) were called active. The shares of active, inactive and inconclusive entries below differ from those in the screen. The call rests on the fitted dose curve; in most records, active means well fitted activation curve with a large enough effect; inconclusive means small, poorly fitted or top-dose-only effect; inactive means no such curve, though single readings can be large or run the other way. Potencies of inconclusive entries are left out as doubtful fits.

target: Glucagon-like peptide 1 receptor (Homo sapiens) (UniProt P43220); assay: qHTS of GLP-1 Receptor Agonists; settings: HEK293 GLP-1R CRE-luciferase, luminescence, 4-6 h, cells express a hypersensitive GLP-1R form; activation: at 45.6 µM (top of the series) unless noted; on activation: % of control where 0% means no effect
Sequence of UniProt P43220 (P43220 whole entry, looked up): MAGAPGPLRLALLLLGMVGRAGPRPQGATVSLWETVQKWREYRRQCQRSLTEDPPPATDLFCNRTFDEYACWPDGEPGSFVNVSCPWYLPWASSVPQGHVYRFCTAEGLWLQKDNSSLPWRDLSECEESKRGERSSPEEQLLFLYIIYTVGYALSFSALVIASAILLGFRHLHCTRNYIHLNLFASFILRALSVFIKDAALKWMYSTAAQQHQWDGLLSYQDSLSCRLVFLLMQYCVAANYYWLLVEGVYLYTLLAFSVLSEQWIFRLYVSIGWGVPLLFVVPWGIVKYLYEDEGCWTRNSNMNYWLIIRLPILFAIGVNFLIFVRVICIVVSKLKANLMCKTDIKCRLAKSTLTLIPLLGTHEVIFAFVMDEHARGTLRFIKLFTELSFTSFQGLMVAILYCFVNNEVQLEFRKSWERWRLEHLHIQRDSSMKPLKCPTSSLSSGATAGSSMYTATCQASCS
Potency means the concentration at half of the fitted maximal effect; tags describe the fitted curve by direction and shape.

| Compound | Potency | activation |
| --- | --- | --- |
| O=C(NCc1cccs1)c1cccc2c(-c3cccnc3)coc12 | inconclusive [activator, partial curve, poor fit] | – |
| O=[N+]([O-])c1ncccc1OCc1ccc(Cl)c(Cl)c1 | – | inactive: 25.8% |
| O=C(NNS(=O)(=O)c1ccccc1)c1ccc(O)cc1 | – | inactive: -4.54% |
| O=[N+]([O-])c1cccnc1NCCNc1ncc(C(F)(F)F)cc1Cl | inconclusive [activator, full curve] | – |
| COc1ccc(-c2nc3ccccc3o2)cc1NC(=O)C(C)(C)Oc1ccc(Br)cc1 | – | inactive: 14% |
| Cc1cc(C)c(C#N)c(N2CCOCC2)n1 | inconclusive [activator, partial curve, poor fit] | – |
| Cc1c(C(=O)N(C)CCOc2ccccc2)oc2c(Cl)cccc12 | inconclusive [activator, single point] | – |
| Nc1nc(Nc2ccccc2F)nc(NCCO)c1[N+](=O)[O-] | inconclusive [activator, partial curve] | – |
| c1ccc(-c2nc(NCc3cccnc3)c3ccccc3n2)cc1 | inconclusive [activator, partial curve] | – |
| COc1ccccc1OCCCn1c(=O)sc2ccccc21 | inconclusive [activator, single point] | – |
| COc1ccc(Cl)cc1NC(=O)Cn1nc(C(F)(F)F)c2c1CCCC2 | – | inactive: -8.96% |
| Cn1c(=O)c2c(-c3ccccc3F)c3c(nc2n(C)c1=O)-c1ccccc1C3O (stereo not given) | – | inactive: 16% |
| COc1ccccc1C(C)Nc1nc(-c2cccnc2)nc2ccccc12 (stereo not given) | inconclusive [activator, partial curve, poor fit] | – |
| CCOC(=O)Nc1sc2c(c1C#N)CCC(C)C2 (stereo not given) | inconclusive [activator, partial curve, poor fit] | – |
| CCC(CC)c1nnc(NC(=O)CCc2ccccc2)s1 | – | inconclusive: 51.2% [activator] |
| Cc1ccc(NC(=O)CN(C)C(=O)c2ccc(NS(=O)(=O)c3cccc([N+](=O)[O-])c3)cc2)cc1 | – | inactive: -1.36% |
| Cc1ccnc(NC(=O)c2ccc(S(=O)(=O)N3CCCCCC3)cc2)c1 | – | inactive: 7.2% |
| COc1cccc(C2OC(=O)c3ccccc3N2C(C)=O)c1OC(C)=O (stereo not given) | – | inactive: 2.12% |
| COc1ccc(-c2nnnn2C(C)C)cc1 | – | inconclusive: 42.2% [activator] |
| CCOc1ccc(S(=O)(=O)N(C)CCO)cc1-c1nc2c(C(C)(C)C)nn(C)c2c(=O)[nH]1 | inconclusive [activator, full curve] | – |
| COc1ccc(-c2ccc(=O)n(Cc3cccc(Cl)c3)n2)cc1 | inconclusive [activator, single point] | – |
| CC(C)Cn1c(=O)n(C)c(=O)c2[nH]cnc21 | inconclusive [activator, partial curve, poor fit] | – |
| Cc1cc(NC(=O)c2c(Cl)cnn2C)no1 | – | inactive: -7.2% |
| O=C(Cn1cc(C(F)(F)F)ccc1=O)N1CCN(S(=O)(=O)c2ccccc2)CC1 | – | inactive: 0.576% |
| COc1ccc(N/C(=C2\CCCC2=O)C2CCCCC2)cc1 | – | inactive: 14.3% |

| Compound | Potency | activation |
| --- | --- | --- |
| COc1ccc(C(=O)Nc2cccc3cccnc23)cc1OC | inconclusive [activator, full curve] | – |
| COc1ccc(NC(=O)COC(=O)CC23CC4CC(CC(C4)C2)C3)c([N+](=O)[O-])c1 | inconclusive [activator, single point] | – |
| CCc1cccc(NC(=O)c2cc(S(=O)(=O)N3CCCCCC3)cn2C)c1 | – | inactive: -1.75% |
| COc1ccccc1N1CCN(C(=O)c2cc3c(s2)-c2ccccc2OC3)CC1 | – | inactive: 2.45% |
| CC(Nc1oc(-c2ccco2)nc1C#N)c1ccccc1 (stereo not given) | inconclusive [activator, single point] | – |
| O=C(Nc1cc(S(=O)(=O)N2CCCCC2)ccc1N1CCOCC1)c1ccc(F)cc1 | – | inactive: -2.13% |
| COC(=O)Nc1ccc(=O)n(Cc2c(Cl)cccc2Cl)c1 | – | inactive: -0.318% |
| COC(CN(C(=O)CCl)C(C(=O)NC1CCCCC1)c1ccc(C)cc1)OC (stereo not given) | – | inactive: 0.465% |
| COc1cc2c(cc1OC)-c1cc(NC3CCCCCC3)nc(=O)n1CC2 | inconclusive [activator, partial curve] | – |
| Cc1ccc2c(c1)C(=O)C(=O)N2CCOc1ccccc1 | inconclusive [activator, partial curve] | – |
| Nc1nonc1-n1nnc(C(=O)N/N=C/c2ccc(Br)cc2)c1-c1ccc2c(c1)OCO2 | – | inactive: -3.27% |
| Cc1cccc2nc(COc3ccc(Cl)c4cccnc34)cn12 | inconclusive [activator, partial curve] | – |
| COc1ccc(CCN2CC(C(=O)NC3CCOCC3)CCC2=O)cc1 (stereo not given) | – | inactive: -1.27% |
| O=C1C(CCC(O)c2ccc(F)cc2)C(c2ccc(O)cc2)N1c1ccc(F)cc1 (stereo not given) | inconclusive [activator, single point] | – |
| COc1ccc(C(=O)/C=C/c2ccc(N(C)C)cc2)c(OC)c1 | inconclusive [activator, single point] | – |
| CC(C)(C)OC(=O)NCCCC[C@H](NC(=O)c1[nH]cnc1C(=O)N[C@@H](Cc1ccccc1)C(=O)OCc1ccccc1)C(=O)OC(C)(C)C | – | inactive: -2.98% |
| COc1ccc(C2c3cc(OC)c(OC)cc3CC3C(=O)OCC32)cc1OC (stereo not given) | inconclusive [activator, partial curve] | – |
| O=C(Nc1ccccc1)Nc1ncc([N+](=O)[O-])s1 | – | inactive: -2.95% |
| Nc1nc(-c2ccc3c(c2)CCC(=O)N3)cs1 | – | inactive: 17.7% |
| CCOCCn1ccc2c(OCC(=O)Nc3ccccc3OC)cccc2c1=O | inconclusive [activator, partial curve, poor fit] | – |
| Cc1ccc(NC(=O)Cc2ccc(Cl)c(Cl)c2)cc1S(=O)(=O)N(C)C | inconclusive [activator, single point] | – |
| COC(=O)CSc1ncnc2scc(-c3ccccc3)c12 | inconclusive [activator, single point] | – |
| S=C(Nc1ccc(Oc2ccccc2)cc1)N(CCCN1CCOCC1)Cc1ccccn1 | – | inactive: 5.51% |
| COC(=O)/N=C/c1c(NCc2ccccc2)nc2c(C)cccn2c1=O | inconclusive [activator, partial curve, poor fit] | – |
| CC[n+]1c(/C=C2/C=C(C)CC(C)(C)C2)sc2ccc(OC)cc21 | – | inactive: -13.9% |

| Compound | Potency | activation |
| --- | --- | --- |
| CCCOc1ccc2c3c(c(=O)oc2c1)CCCC3 | inconclusive [activator, partial curve, poor fit] | – |
| O=C1C(=Cc2cn(-c3ccccc3)nc2-c2ccc(OCc3ccc(Cl)cc3)cc2)SC(=S)N1CCS(=O)(=O)O | – | inactive: 7.7% |
| COc1cccc(C(=O)NCC(C)(C)SCc2ccc(F)cc2)c1 | – | inactive: 12.4% |
| CCCCN(CC)c1nc(N)c(C#N)c(CC#N)c1C#N | inconclusive [activator, partial curve, poor fit] | – |
| CC(C)OC(=O)c1cc2c(OC[C@@H](O)CNC(C)(C)C)cccc2[nH]1 | inconclusive [activator, partial curve] | – |
| CNC(=S)Nc1ccc(-c2nc3ccc(C)cc3s2)cc1 | – | inactive: -2.13% |
| Nc1cc(=O)[nH]c(SCCSc2ccccc2F)n1 | inconclusive [activator, partial curve, poor fit] | – |
| O=C(/C=C/Nc1ccccc1C(F)(F)F)c1ccco1 | – | inactive: 2.14% |
| COc1ccc(C2=Nn3c(nnc3-c3ccccc3OC)SC2)cc1OC1CCOC1 (stereo not given) | inconclusive [activator, partial curve] | – |
| Cn1nccc1C(=O)N(CCN1CCCCC1)CC1CCCN(C2CCCC2)C1 (stereo not given) | – | inactive: -9.61% |
| CC(C)Cc1nc(NCCN2CCOCC2)c(C#N)c2c1COC(C)(C)C2 | inconclusive [activator, partial curve] | – |
| CN(C)CCN1CCN(C2CN(Cc3cn(Cc4ccccc4C(F)(F)F)nn3)S(=O)(=O)C2)CC1 (stereo not given) | – | inactive: -2.77% |
| COc1ccc(N2C(=O)CS(=O)(=O)C23C(=O)N(Cc2c(F)cccc2Cl)c2ccccc23)cc1 (stereo not given) | – | inactive: -1.86% |
| COCCn1c(C)cc(C2=NNC(=Nc3ccccc3F)SC2)c1C | – | inactive: -11.7% |
| CCCc1nc2n[nH]c(N)c2c2c1CCCC2 | inconclusive [activator, single point] | – |
| Cc1ccc(C(=O)c2ccccc2C(=O)OCC(=O)Nc2ccc(SC(F)F)cc2)cc1 | – | inactive: -6.75% |
| Clc1cccc(CSc2ncn(-c3ccccc3)n2)c1 | inconclusive [activator, single point] | – |
| N#CCSc1nc2ccccc2c(=O)n1C1CCCCC1 | inconclusive [activator, partial curve, poor fit] | – |
| CCc1c(C2(O)CCCCC2)[nH]c2cc(C(F)(F)F)ccc12 | – | inactive: 0.271% |
| O=c1c2c3c(sc2nc(NCCO)n1Cc1ccco1)CCCCC3 | inconclusive [activator, partial curve, poor fit] | – |
| Cc1cccc(C(=O)O/N=C(\N)Cc2cccc3ccccc23)c1 | inconclusive [activator, single point] | – |
| N#C/C(=C\c1ccc(N2CCOCC2)c([N+](=O)[O-])c1)c1nc2ccccc2[nH]1 | inconclusive [activator, full curve, poor fit] | – |
| Cc1nc(N)sc1-c1csc(Nc2ccccc2)n1 | inconclusive [activator, single point] | – |
| Cc1cccc(NC(=O)CSc2nc3ccccc3c(=O)n2C)c1 | inconclusive [activator, single point] | – |
| COc1ccc(/C=N/Nc2ccccn2)cc1OC | inconclusive [activator, partial curve, poor fit] | – |
